Measurements as given in the supplement of paper PMC8728848.
The other results are listed elsewhere or left out.

Columns and labels:
Assay in all cases: glycan array binding signal (z-score within array); higher = stronger binding
Conditions in all cases: glycan notation: IUPAC condensed, linker removed
Gal6S(b1-4)Glc6S = biological target: Gal6S(b1-4)Glc6S
How it was run: (§1)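 Arrays were curated from the Consortium for Functional Glycomics database, 3228 in total, and kept only where the protein sequence was available. Binding is expressed as a within-array Z-score. This score was averaged across arrays of the same protein sequence at different concentrations or buffers and across linkers, and negative values can be read as non-binding.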

Gal6S(b1-4)GlcNAc = biological target: Gal6S(b1-4)GlcNAc
How it was run: as §1

Gal6S(b1-4)GlcNAc6S = biological target: Gal6S(b1-4)GlcNAc6S
How it was run: as §1

GalNAc(a1-3)Gal = biological target: GalNAc(a1-3)Gal
How it was run: as §1

GalNAc(a1-3)GalNAc = biological target: GalNAc(a1-3)GalNAc
How it was run: as §1

[1] = biological target: GalNAc(a1-3)GalNAc(b1-3)Gal(a1-4)Gal(b1-4)Glc
How it was run: as §1

[2] = biological target: GalNAc(a1-3)GalNAc(b1-3)Gal(a1-4)Gal(b1-4)GlcNAc
How it was run: as §1

GalNAc(b1-3)Gal = biological target: GalNAc(b1-3)Gal
How it was run: as §1

[3] = biological target: GalNAc(b1-3)Gal(a1-4)Gal(b1-4)GlcNAc
How it was run: as §1

[4] = biological target: GalNAc(b1-3)Gal(a1-4)Gal(b1-4)GlcNAc(b1-3)Gal(b1-4)Glc
How it was run: as §1

[5] = biological target: GalNAc(b1-3)Gal(a1-6)Gal(b1-4)Glc
How it was run: as §1

GalNAc(b1-3)GalNAc = biological target: GalNAc(b1-3)GalNAc
How it was run: as §1

GalNAc(b1-3)GlcNAc = biological target: GalNAc(b1-3)GlcNAc
How it was run: as §1

GalNAc(b1-4)Gal(b1-4)Glc = biological target: GalNAc(b1-4)Gal(b1-4)Glc
How it was run: as §1

GalNAc(b1-4)GlcNAc = biological target: GalNAc(b1-4)GlcNAc
How it was run: as §1

[6] = biological target: GalNAc(b1-4)GlcNAc(b1-2)Man
How it was run: as §1

[7] = biological target: GalNAc(b1-4)GlcNAc(b1-2)Man(a1-3)[GalNAc(b1-4)GlcNAc(b1-2)Man(a1-6)]Man(b1-4)GlcNAc(b1-4)GlcNAc
How it was run: as §1

[8] = biological target: GalNAc(b1-4)GlcNAc(b1-3)GalNAc(b1-4)GlcNAc
How it was run: as §1

GalNAc(b1-4)GlcNAc6S = biological target: GalNAc(b1-4)GlcNAc6S
How it was run: as §1

GalNAc(b1-6)GalNAc = biological target: GalNAc(b1-6)GalNAc
How it was run: as §1

GalNAc3S(b1-4)GlcNAc = biological target: GalNAc3S(b1-4)GlcNAc
How it was run: as §1

GalNAc3S(b1-4)GlcNAc3S = biological target: GalNAc3S(b1-4)GlcNAc3S
How it was run: as §1

[9] = biological target: GalNAc3S(b1-4)[Fuc(a1-3)]GlcNAc
How it was run: as §1

GalNAc4S6S(b1-4)GlcNAc = biological target: GalNAc4S6S(b1-4)GlcNAc
How it was run: as §1

GalNAc6S(b1-4)GlcNAc = biological target: GalNAc6S(b1-4)GlcNAc
How it was run: as §1

Glc(a1-4)Glc = biological target: Glc(a1-4)Glc
How it was run: as §1

[10] = biological target: Glc(a1-4)Glc(a1-4)Glc(a1-4)Glc
How it was run: as §1

Glc(a1-6)Glc(a1-6)Glc = biological target: Glc(a1-6)Glc(a1-6)Glc
How it was run: as §1

[11] = biological target: Glc(a1-6)Glc(a1-6)Glc(a1-6)Glc
How it was run: as §1

Glc(b1-4)Glc = biological target: Glc(b1-4)Glc
How it was run: as §1

Glc(b1-6)Glc = biological target: Glc(b1-6)Glc
How it was run: as §1

GlcA(b1-3)Gal = biological target: GlcA(b1-3)Gal
How it was run: as §1

GlcA(b1-3)GlcNAc = biological target: GlcA(b1-3)GlcNAc
How it was run: as §1

GlcA(b1-6)Gal = biological target: GlcA(b1-6)Gal
How it was run: as §1

[12] = biological target: GlcA3S(b1-3)Gal(b1-4)GlcNAc(b1-2)Man
How it was run: as §1

[13] = biological target: GlcA3S(b1-3)Gal(b1-4)GlcNAc(b1-3)Gal(b1-4)Glc
How it was run: as §1

[14] = biological target: GlcNAc(a1-3)Gal(b1-4)GlcNAc
How it was run: as §1

[15] = biological target: GlcNAc(a1-4)Gal(b1-3)GlcNAc
How it was run: as §1

[16] = biological target: GlcNAc(a1-4)Gal(b1-4)GalNAc
How it was run: as §1

[17] = biological target: GlcNAc(a1-4)Gal(b1-4)GlcNAc
How it was run: as §1

[18] = biological target: GlcNAc(a1-4)Gal(b1-4)GlcNAc(b1-3)Gal(b1-4)Glc
How it was run: as §1

[19] = biological target: GlcNAc(a1-4)Gal(b1-4)GlcNAc(b1-3)Gal(b1-4)GlcNAc
How it was run: as §1

[20] = biological target: GlcNAc(a1-4)Gal(b1-4)GlcNAc(b1-3)Gal(b1-4)GlcNAc(b1-3)Gal(b1-4)GlcNAc
How it was run: as §1

[21] = biological target: GlcNAc(a1-4)Gal(b1-4)GlcNAc(b1-3)Gal(b1-4)[Fuc(a1-3)]GlcNAc(b1-3)Gal(b1-4)[Fuc(a1-3)]GlcNAc
How it was run: as §1

[22] = biological target: GlcNAc(a1-6)Gal(b1-4)GlcNAc
How it was run: as §1

B1: rCnSL-A (Clitocybe nebularis) (protein)
chain: VNPNLPGPNDVFVGFRGTNNIVGAIYEKDGIKDTPLNNGADAEMGPGSYITDGLFTARIFASGSAGNNPGTTATVCKIYASGVQWRGAPKGYIPVAYFGNGPTAEQRRQTYLRTLGLPGTAIRFGNLNTNPGQGPTAPRQMVVPPGPLRSLLKASCFPAADTRLPQTLHYFEKRVDWNIITAADSQTWGH
glycan array binding signal (z-score) (Gal6S(b1-4)Glc6S): -0.241 | glycan array binding signal (z-score) (Gal6S(b1-4)GlcNAc): -0.238 | glycan array binding signal (z-score) (Gal6S(b1-4)GlcNAc6S): -0.295 | glycan array binding signal (z-score) (GalNAc(a1-3)Gal): -0.24 | glycan array binding signal (z-score) (GalNAc(a1-3)GalNAc): -0.195 | glycan array binding signal (z-score) [1]: -0.248 | glycan array binding signal (z-score) [2]: -0.228 | glycan array binding signal (z-score) (GalNAc(b1-3)Gal): -0.172 | glycan array binding signal (z-score) [3]: -0.103 | glycan array binding signal (z-score) [4]: -0.126 | glycan array binding signal (z-score) [5]: -0.204 | glycan array binding signal (z-score) (GalNAc(b1-3)GalNAc): -0.302 | glycan array binding signal (z-score) (GalNAc(b1-3)GlcNAc): -0.206 | glycan array binding signal (z-score) (GalNAc(b1-4)Gal(b1-4)Glc): -0.026 | glycan array binding signal (z-score) (GalNAc(b1-4)GlcNAc): -0.033 | glycan array binding signal (z-score) [6]: 0.402 | glycan array binding signal (z-score) [7]: 0.978 | glycan array binding signal (z-score) [8]: 0.535 | glycan array binding signal (z-score) (GalNAc(b1-4)GlcNAc6S): -0.266 | glycan array binding signal (z-score) (GalNAc(b1-6)GalNAc): -0.234 | glycan array binding signal (z-score) (GalNAc3S(b1-4)GlcNAc): -0.247 | glycan array binding signal (z-score) (GalNAc3S(b1-4)GlcNAc3S): -0.312 | glycan array binding signal (z-score) [9]: -0.302 | glycan array binding signal (z-score) (GalNAc4S6S(b1-4)GlcNAc): -0.268 | glycan array binding signal (z-score) (GalNAc6S(b1-4)GlcNAc): -0.236 | glycan array binding signal (z-score) (Glc(a1-4)Glc): -0.223 | glycan array binding signal (z-score) [10]: -0.147 | glycan array binding signal (z-score) (Glc(a1-6)Glc(a1-6)Glc): -0.18 | glycan array binding signal (z-score) [11]: -0.208 | glycan array binding signal (z-score) (Glc(b1-4)Glc): -0.221 | glycan array binding signal (z-score) (Glc(b1-6)Glc): -0.293 | glycan array binding signal (z-score) (GlcA(b1-3)Gal): -0.323 | glycan array binding signal (z-score) (GlcA(b1-3)GlcNAc): -0.176 | glycan array binding signal (z-score) (GlcA(b1-6)Gal): 2.28 | glycan array binding signal (z-score) [12]: -0.316 | glycan array binding signal (z-score) [13]: -0.285 | glycan array binding signal (z-score) [14]: -0.253 | glycan array binding signal (z-score) [15]: -0.198 | glycan array binding signal (z-score) [16]: -0.222 | glycan array binding signal (z-score) [17]: -0.273 | glycan array binding signal (z-score) [18]: -0.367 | glycan array binding signal (z-score) [19]: -0.272 | glycan array binding signal (z-score) [20]: -0.231 | glycan array binding signal (z-score) [21]: 0.003 | glycan array binding signal (z-score) [22]: 0.406
